Measured values published in the supplement of paper PMC10126150.
Sequences with one replicate were seen in a single cluster, so their values are uncertain.

The sequences below were run on ATP (assay: switch fluorescence ratio, 500 uM ATP over buffer (Cy3 cluster intensity, sum of 5 cycles each) (fold (ratio)); higher = stronger signal-on switching upon ATP binding; sequences stand for … in TCGTCGGCAGCGTCAGATGTGTATAAGAGACAGTTTTTTTTTTTTTTTTTTTTTTTTT…TC). Conditions: aptamer strand: ATP DNA aptamer (quencher-CACCTGGGGGAGTATTGCGGAGGAAGG + anchor), 100 nM annealed; ATP concentration: 500 uM; one replicate.
Procedure, shortened: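 For every switch-domain sequence, the fluorescence ratio is the mean of per-cluster values, each being summed target-cycle Cy3 intensity over summed buffer-cycle Cy3 intensity. Clusters outside 100-1000 RFU were excluded. On a modified Illumina MiSeq flow-cell, the Cy3-labelled switching-strand clusters were annealed to 100 nM quencher-labelled ATP aptamer, imaged in selection buffer and then after 15 min with 500 uM ATP at 22 °C. Five such cycles were run, with NaOH stripping and re-annealing between them.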
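Note: ATP exposure 15 min at 22 °C before imaging.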

**Q.** For TTAGGGCCCG, which switch fluorescence ratio is on record?
**A.** 0.996

**Q.** For TTAGTAGCAG, which switch fluorescence ratio is on record?
**A.** 1

**Q.** Which switch fluorescence ratio does the source give for TTAGTCACTA here?
**A.** 1.02

**Q.** How did the switch fluorescence ratio turn out when TTAGTCCTAT was run?
**A.** 0.949

**Q.** TTAGTCGCCA was tested. Which switch fluorescence ratio did it give?
**A.** 0.947

**Q.** TTAGTCGCTA was tested. Which switch fluorescence ratio did it give?
**A.** 0.998

**Q.** TTAGTCGGGG was tested. Which switch fluorescence ratio did it give?
**A.** 0.986

**Q.** Which switch fluorescence ratio does the source give for TTAGTGATGA here?
**A.** 1.04

**Q.** How did the switch fluorescence ratio turn out when TTAGTGATTG was run?
**A.** 0.981

**Q.** TTAGTTCGTG was tested. Which switch fluorescence ratio did it give?
**A.** 1.01

**Q.** With TTAGTTGATG as the sequence, how does the switch fluorescence ratio read?
**A.** 0.991

**Q.** How did the switch fluorescence ratio turn out when TTAGTTGTCA was run?
**A.** 0.983

**Q.** Which switch fluorescence ratio does the source give for TTATAAAATC here?
**A.** 1.01

**Q.** Which switch fluorescence ratio does the source give for TTATAACTC here?
**A.** 1.01

**Q.** For TTATAAGAGA, which switch fluorescence ratio is on record?
**A.** 0.979

**Q.** With TTATAAGGTG as the sequence, how does the switch fluorescence ratio read?
**A.** 1.64

**Q.** Which switch fluorescence ratio does the source give for TTATAATCGA here?
**A.** 0.953

**Q.** With TTATAATG as the sequence, how does the switch fluorescence ratio read?
**A.** 0.991

**Q.** How did the switch fluorescence ratio turn out when TTATAATTG was run?
**A.** 1

**Q.** Which switch fluorescence ratio does the source give for TTATAGAGAG here?
**A.** 0.991

**Q.** Which switch fluorescence ratio does the source give for TTATAGCACT here?
**A.** 1.06

**Q.** TTATAGGCTT was tested. Which switch fluorescence ratio did it give?
**A.** 0.961

**Q.** Which switch fluorescence ratio does the source give for TTATAGTAGC here?
**A.** 0.976

**Q.** With TTATATGTCG as the sequence, how does the switch fluorescence ratio read?
**A.** 1.06

**Q.** With TTATATTTC as the sequence, how does the switch fluorescence ratio read?
**A.** 1.02

**Q.** How did the switch fluorescence ratio turn out when TTATCACAGT was run?
**A.** 1.03

**Q.** With TTATCAGATT as the sequence, how does the switch fluorescence ratio read?
**A.** 1.02

**Q.** How did the switch fluorescence ratio turn out when TTATCAGCAA was run?
**A.** 2.28

**Q.** For TTATCCCCAA, which switch fluorescence ratio is on record?
**A.** 1.11

**Q.** TTATCGACTC was tested. Which switch fluorescence ratio did it give?
**A.** 0.945

**Q.** For TTATCGGACT, which switch fluorescence ratio is on record?
**A.** 1.03

**Q.** With TTATCGGTCC as the sequence, how does the switch fluorescence ratio read?
**A.** 0.994

**Q.** Which switch fluorescence ratio does the source give for TTATCTACTG here?
**A.** 1.1

**Q.** Which switch fluorescence ratio does the source give for TTATCTAGC here?
**A.** 1

**Q.** With TTATCTCATC as the sequence, how does the switch fluorescence ratio read?
**A.** 0.968

**Q.** Which switch fluorescence ratio does the source give for TTATCTTAGG here?
**A.** 0.985

**Q.** How did the switch fluorescence ratio turn out when TTATCTTCGG was run?
**A.** 0.968

**Q.** TTATCTTTAT was tested. Which switch fluorescence ratio did it give?
**A.** 1

**Q.** For TTATGACGC, which switch fluorescence ratio is on record?
**A.** 1.06

**Q.** TTATGCACTT was tested. Which switch fluorescence ratio did it give?
**A.** 1.05

**Q.** With TTATGCCAAC as the sequence, how does the switch fluorescence ratio read?
**A.** 0.986

**Q.** For TTATGCGGCA, which switch fluorescence ratio is on record?
**A.** 1.05

**Q.** TTATGCGTA was tested. Which switch fluorescence ratio did it give?
**A.** 1.03

**Q.** Which switch fluorescence ratio does the source give for TTATGCTGAG here?
**A.** 0.965

**Q.** How did the switch fluorescence ratio turn out when TTATGGCCAG was run?
**A.** 0.986

**Q.** Which switch fluorescence ratio does the source give for TTATGGGTGC here?
**A.** 1.01

**Q.** How did the switch fluorescence ratio turn out when TTATGGTAAA was run?
**A.** 1

**Q.** Which switch fluorescence ratio does the source give for TTATGGTATC here?
**A.** 1.02

**Q.** TTATGGTG was tested. Which switch fluorescence ratio did it give?
**A.** 1.03

**Q.** Which switch fluorescence ratio does the source give for TTATGGTTTC here?
**A.** 0.986

**Q.** For TTATGTAGTG, which switch fluorescence ratio is on record?
**A.** 0.946

**Q.** For TTATGTCCAT, which switch fluorescence ratio is on record?
**A.** 1.02

**Q.** TTATGTCCT was tested. Which switch fluorescence ratio did it give?
**A.** 1

**Q.** Which switch fluorescence ratio does the source give for TTATGTCTGA here?
**A.** 1.02

**Q.** For TTATTACGCA, which switch fluorescence ratio is on record?
**A.** 1.24

**Q.** For TTATTAGTCC, which switch fluorescence ratio is on record?
**A.** 1.08

**Q.** Which switch fluorescence ratio does the source give for TTATTAGTGG here?
**A.** 1.01

**Q.** Which switch fluorescence ratio does the source give for TTATTATGTA here?
**A.** 0.989

**Q.** How did the switch fluorescence ratio turn out when TTATTCAG was run?
**A.** 1.03

**Q.** With TTATTCCTCT as the sequence, how does the switch fluorescence ratio read?
**A.** 1.01

**Q.** TTATTCGTAT was tested. Which switch fluorescence ratio did it give?
**A.** 1.41

**Q.** TTATTCTTAT was tested. Which switch fluorescence ratio did it give?
**A.** 1.03

**Q.** Which switch fluorescence ratio does the source give for TTATTGAGTG here?
**A.** 0.92

**Q.** How did the switch fluorescence ratio turn out when TTATTGCAAT was run?
**A.** 1.09

**Q.** For TTATTGTCAT, which switch fluorescence ratio is on record?
**A.** 1.05

**Q.** Which switch fluorescence ratio does the source give for TTATTTAGCC here?
**A.** 0.91

**Q.** For TTATTTAGTG, which switch fluorescence ratio is on record?
**A.** 0.939

**Q.** With TTATTTCCTG as the sequence, how does the switch fluorescence ratio read?
**A.** 0.984

**Q.** TTATTTGCCA was tested. Which switch fluorescence ratio did it give?
**A.** 1.02

**Q.** How did the switch fluorescence ratio turn out when TTATTTGCGA was run?
**A.** 1.06

**Q.** With TTATTTGGCA as the sequence, how does the switch fluorescence ratio read?
**A.** 0.987

**Q.** With TTATTTTT as the sequence, how does the switch fluorescence ratio read?
**A.** 1

**Q.** With TTCAAACGT as the sequence, how does the switch fluorescence ratio read?
**A.** 1.04

**Q.** How did the switch fluorescence ratio turn out when TTCAAAGCAT was run?
**A.** 3.85

**Q.** How did the switch fluorescence ratio turn out when TTCAACAC was run?
**A.** 1.05

**Q.** Which switch fluorescence ratio does the source give for TTCAACACTT here?
**A.** 1

**Q.** Which switch fluorescence ratio does the source give for TTCAACCCTC here?
**A.** 1.02

**Q.** How did the switch fluorescence ratio turn out when TTCAATGCCA was run?
**A.** 1.05

**Q.** TTCAATTAAT was tested. Which switch fluorescence ratio did it give?
**A.** 0.961

**Q.** Which switch fluorescence ratio does the source give for TTCACGAACG here?
**A.** 1.36

**Q.** Which switch fluorescence ratio does the source give for TTCACGAGAT here?
**A.** 1.06

**Q.** How did the switch fluorescence ratio turn out when TTCACTACA was run?
**A.** 1.07

**Q.** For TTCACTCAGC, which switch fluorescence ratio is on record?
**A.** 1.16

**Q.** With TTCAGAACAT as the sequence, how does the switch fluorescence ratio read?
**A.** 1

**Q.** TTCAGACGCT was tested. Which switch fluorescence ratio did it give?
**A.** 1.48

**Q.** TTCAGAGT was tested. Which switch fluorescence ratio did it give?
**A.** 0.961

**Q.** TTCAGATATT was tested. Which switch fluorescence ratio did it give?
**A.** 0.99

**Q.** With TTCAGATTCT as the sequence, how does the switch fluorescence ratio read?
**A.** 0.995

**Q.** TTCAGCTTAC was tested. Which switch fluorescence ratio did it give?
**A.** 5.15

**Q.** TTCAGGGTA was tested. Which switch fluorescence ratio did it give?
**A.** 0.975

**Q.** For TTCAGGTACG, which switch fluorescence ratio is on record?
**A.** 1.01

**Q.** For TTCAGGTGGA, which switch fluorescence ratio is on record?
**A.** 1.02

**Q.** How did the switch fluorescence ratio turn out when TTCAGTACC was run?
**A.** 1.04

**Q.** For TTCAGTTTGT, which switch fluorescence ratio is on record?
**A.** 1.03

**Q.** Which switch fluorescence ratio does the source give for TTCATAATCT here?
**A.** 1.01

**Q.** With TTCATACATA as the sequence, how does the switch fluorescence ratio read?
**A.** 1.12

**Q.** TTCATATTA was tested. Which switch fluorescence ratio did it give?
**A.** 1.02

**Q.** With TTCATATTTA as the sequence, how does the switch fluorescence ratio read?
**A.** 0.997

**Q.** TTCATCCTGG was tested. Which switch fluorescence ratio did it give?
**A.** 1.04

**Q.** Which switch fluorescence ratio does the source give for TTCATCGCTA here?
**A.** 1.5

**Q.** TTCATCGG was tested. Which switch fluorescence ratio did it give?
**A.** 1.13
